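All cell lines were grown in 96-well plates and treated with compound for 48 hours. GI50 = concentration required for 50% inhibition of growth.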 Activity calls are given as the source filed them. No stated cut-off is given here; in the data, active = GI50 up to about 1.1 µM and inactive = higher.

The GI50 is the concentration giving 50% growth inhibition.

In this assay the test system is NCI-H322M. The assay can be described thus: DTP human tumour cell line panel, 48 h.
In the case of `CCCCCCCCCCCCCCC(O)C[N+](C)(CCO)CCO` (centres undefined), the GI50 was inactive: 15.1 µM.

With `Cc1cc2c3c(nc4ccccc42)C(=O)c2ccccc2-c3n1`, the GI50 is inactive: 2.18 µM.

In the case of `Cc1ccc(-[n+]2cc([O-])on2)cc1`, the GI50 was inactive: > 100 µM.

Regarding `[N-]=[N+]=C(C(=O)OCC#CCOC(=O)C(=[N+]=[N-])S(=O)(=O)c1ccccc1)S(=O)(=O)c1ccccc1`, the GI50 is inactive: > 10 µM.

Take `Cc1cc(OC(=O)Nc2ccc(Cl)cc2)ccc1C(=S)Nc1ccccc1`: the GI50 was inactive: > 100 µM.

For the molecule `CC(C)NC(=O)OCc1c(COC(=O)NC(C)C)c(-c2ccc[n+](COC(=O)CC(C)(C)C)c2)n2c1CCC2`, the GI50 was inactive: > 100 µM.

On to `CCOC(=O)C1CCCCN1C(=O)Cc1c[nH]c2ccccc12` (centres undefined), for which the GI50 is inactive: > 100 µM.

Take `CC1=NN(c2cccc(Cl)c2)C(=N/c2nc3ccccc3s2)/C1=C\c1cccs1`: the GI50 is inactive: 45.9 µM.

Regarding `O=C(O)CN1CCN2CCCCCCCCN(CC1)CCN(CC(=O)O)CC2`, the GI50 is inactive: > 100 µM.

`O=c1[nH]c(=O)c2c3n(cc2[nH]1)CCCCC3`: the GI50 is inactive: > 100 µM.

With `CN(C)CCNC(=O)c1cc(Cl)cc2ccc(-c3ccccc3)nc12`, the GI50 is inactive: 3.67 µM.

Take `COc1ccc(C2NC3=C(CCCC3)N2)cc1`: the GI50 was inactive: > 100 µM.

Turning to `COc1ccc2cc(-c3nc(N)nc(N4N=C(C)CC4(C)C)n3)c(=N)oc2c1`, the GI50 is inactive: 20.7 µM.

For `CN(/N=C/c1ccccn1)C1=NCCCN1`, the GI50 was inactive: > 100 µM.

Consider `CN1CCN(c2cc3[nH]c(-c4ccc(Cl)cc4)nc3cc2F)CC1`, for which the GI50 was inactive: 15.9 µM.

For the molecule `COc1ccc(C(=O)O)c2c(=O)c3cccnc3[nH]c12`, the GI50 is inactive: > 100 µM.

Turning to `O=C1Oc2cc3c(c4cccc1c24)OCN(c1ccccc1)C3`, the GI50 is inactive: > 100 µM.

In the case of `COc1c(C)n(CCO)ccc1=O`, the GI50 was inactive: > 100 µM.

`CCOC(=O)c1ccc2nc3n(c2c1)C(c1c(F)cccc1F)SC3` (centres undefined): the GI50 was inactive: > 100 µM.

Turning to `CC(C)N1[C@@H]2CCCC[C@H]2N(C(C)C)P1(=O)C(=O)/C=C/c1ccccc1`, the GI50 is inactive: 3.38 µM.

`O=c1[nH]cnc2c(C3OC(CO)C(O)C3O)c[nH]c12` (centres undefined): the GI50 is inactive: > 100 µM.

As for `COc1cc2c(cc1OC)-c1cc3ccccc3c(=O)n1CC2`, the GI50 was inactive: 33.7 µM.

Consider `COc1ccc(C2NC(N)=C(C#N)C3=C2C(C)CCC3)cc1OC` (centres undefined), for which the GI50 is inactive: 88.9 µM.

On to `N#Cc1ccc(C2ON=C(c3ccccc3)N2C23CC4CC(CC(C4)C2)C3)cc1` (centres undefined), for which the GI50 is inactive: > 10 µM.

Regarding `CN1CCCOC(c2ccc(Cl)cc2)O1` (centres undefined), the GI50 is inactive: > 100 µM.

As for `CCN(CC(COc1ccc2c(c1)[n+]([O-])nc(N)[n+]2[O-])OC(C)=O)C(C)=O` (centres undefined), the GI50 was inactive: 80.7 µM.

For the molecule `COC(=O)C(=O)CC(=O)c1cccc(OC)c1`, the GI50 is inactive: > 100 µM.

On to `COc1ccc(CC2C3=C(CCCC3)CCN2C)cc1` (centres undefined), for which the GI50 was inactive: > 100 µM.

With `N=C(N)N/N=C/c1c(-c2ccccc2)nc2ccn3c(/C=N/N=C(N)N)c(-c4ccccc4)nc3n12`, the GI50 is inactive: 22 µM.

Regarding `N#CCCN(CCC#N)c1ccc(C(Sc2ccccc2)C(NC(=O)c2cc([N+](=O)[O-])ccc2Cl)C(=O)Sc2ccccc2)cc1` (centres undefined), the GI50 was inactive: 9.59 µM.

`COc1nc(C(=O)NNC(=O)c2nc(OC)c3ccccc3c2-c2ccccc2)c(-c2ccccc2)c2ccccc12`: the GI50 is inactive: > 100 µM.

As for `COC(=O)C(=O)C(C(=O)C(=O)Nc1ccc(C)c(C)c1)c1nc2ccc([N+](=O)[O-])cc2nc1O` (centres undefined), the GI50 was inactive: > 100 µM.

As to `CCCCc1c2c(c(C)c3c1C(=O)OC3)Oc1ccccc1O2`, the GI50 is active: 0.935 µM.

`COc1cc(Cn2c3ccccc3c3cc(C)cc(OC)c32)cc2c1[nH]c1ccccc12`: the GI50 was inactive: > 25 µM.

The values above are taken from ChEMBL document CHEMBL1201862, “PubChem BioAssay data set” (2004).
